The labels stand for the following.
B1: AK921 (Fc fusion)
chain 1: [human IgG1 Fc with changes left out here]GGSPGKIDACKRGDVTVKPSHVILLGSTVNITCSLKPRQGCFHYSRRNKLILYKFDRRINFHHGHSLNSQVTGLPLGTTLFVCKLACINSDEIQICGAEIFVGVAPEQPQNLSCIQKGEQGTVACTWERGRDTHLYTEYTLQLSGPKNLTWQKQCKDIYCDYLDFGINLTPESPESNFTAKVTAVNSLGSSSSLPSTFTFLDIVRPLPPWDIRIKFQKASVSRSTLYWRDEGLVLLNRLRYRPSNSRLWNMVNVTKAKGRHDLLDLKPFTEYEFQISSKLHLYKGSWSDWSESLRAQTPEE
chain 2: DKTHTCPPCPAPELLGGPSVFLFPPKPKDTLMISRTPEVTCVVVDVSHEDPEVKFNWYVDGVEVHNAKTKPREEQYASTYRVVSVLTVLHQDWLNGKEYKCKVSNKALPAPIEKTISKAKGQPREPQVYTLPPCRDELTKNQVSLWCLVKGFYPSDIAVEWESNGQPENNYKTTPPVLDSDGSFFLYSKLTVDKSRWQQGNVFSCSVMHEALHNHYTQKSLSLSPGGGSGGSGGSRAAAVKSPSGPIWELKKDVYVVELDWYPDAPGEMVVLTCDTPEEDGITWTLDQSSEVLGSGKTLTIQVKEFGDAGQYTCHKGGEVLSHSLLLLHKKEDGIWSTDILKDQKEPKNKTFLRCEAKNYSGRFTCWWLTTISTDLTFSVKSSRGSSDPQGVTCGAATLSAERVRGDNKEYEYSVECQEDSACPAAEESLPIEVMVDAVHKLKYENYTSSFFIRDIIKPDPPKNLQLKPLKNSRQVEVSWEYPDTWSTPHSYFSLTFSVQVQGKDNTEGRVFTDKTSATVICRKNASISVRAQDRYYSSSWSEWASVPCSGGGGSGGGGSGGGGSRNLPVATPDPGMFPCLHHSQNLLRAVSNMLQKARQTLEFYPCTSEEIDHEDITKDKTSTVEACLPLELTKNESCLNSRETSFITNGSCLASRKTSFMMALCLSSIYEDLKMYQVEFKTMNAKLLMDPKRQIFLDQNMLAVIDELMQALNFNSETVPQKSSLEEPDFYKTKIKLCILLHAFRIRAVTIDRVMSYLNAS
B2: AK925 (Fc fusion)
chain 1: [human IgG1 Fc with changes left out here]GGSGGGSGKIDACKRGDVTVKPSHVILLGSTVNITCSLKPRQGCFHYSRRNKLILYKFDRRINFHHGHSLNSQVTGLPLGTTLFVCKLACINSDEIQICGAEIFVGVAPEQPQNLSCIQKGEQGTVACTWERGRDTHLYTEYTLQLSGPKNLTWQKQCKDIYCDYLDFGINLTPESPESNFTAKVTAVNSLGSSSSLPSTFTFLDIVRPLPPWDIRIKFQKASVSRSTLYWRDEGLVLLNRLRYRPSNSRLWNMVNVTKAKGRHDLLDLKPFTEYEFQISSKLHLYKGSWSDWSESLRAQTPEE
chain 2: B1 chain 2
B3: AK386 (Fc fusion)
chain 1: [human IgG1 Fc with changes left out here]GGGGSGGGGSKIDACKRGDVTVKPSHVILLGSTVNITCSLKPRQGCFHYSRRNKLILYKFDRRINFHHGHSLNSQVTGLPLGTTLFVCKLACINSDEIQICGAEIFVGVAPEQPQNLSCIQKGEQGTVACTWERGRDTHLYTEYTLQLSGPKNLTWQKQCKDIYCDYLDFGINLTPESPESNFTAKVTAVNSLGSSSSLPSTFTFLDIVRPLPPWDIRIKFQKASVSRCTLYWRDEGLVLLNRLRYRPSNSRLWNMVNVTKAKGRHDLLDLKPFTEYEFQISSKLHLYKGSWSDWSESLRAQTPEE
chain 2: DKTHTCPPCPAPELLGGPSVFLFPPKPKDTLMISRTPEVTCVVVDVSHEDPEVKFNWYVDGVEVHNAKTKPREEQYASTYRVVSVLTVLHQDWLNGKEYKCKVSNKALPAPIEKTISKAKGQPREPQVYTLPPCRDELTKNQVSLWCLVKGFYPSDIAVEWESNGQPENNYKTTPPVLDSDGSFFLYSKLTVDKSRWQQGNVFSCSVMHEALHNHYTQKSLSLSPGGGSGGSGGSVPLSLYSGPIWELKKDVYVVELDWYPDAPGEMVVLTCDTPEEDGITWTLDQSSEVLGSGKTLTIQVKEFGDAGQYTCHKGGEVLSHSLLLLHKKEDGIWSTDILKDQKEPKNKTFLRCEAKNYSGRFTCWWLTTISTDLTFSVKSSRGSSDPQGVTCGAATLSAERVRGDNKEYEYSVECQEDSACPAAEESLPIEVMVDAVHKLKYENYTSSFFIRDIIKPDPPKNLQLKPLKNSRQVEVSWEYPDTWSTPHSYFSLTFCVQVQGKSKREKKDRVFTDKTSATVICRKNASISVRAQDRYYSSSWSEWASVPCSGGGGSGGGGSGGGGSRNLPVATPDPGMFPCLHHSQNLLRAVSNMLQKARQTLEFYPCTSEEIDHEDITKDKTSTVEACLPLELTKNESCLNSRETSFITNGSCLASRKTSFMMALCLSSIYEDLKMYQVEFKTMNAKLLMDPKRQIFLDQNMLAVIDELMQALNFNSETVPQKSSLEEPDFYKTKIKLCILLHAFRIRAVTIDRVMSYLNAS
notes: Masked IL-12 heterodimer, IL-12Rβ2 (24-319) mask; tested uncleaved; also called AK386 null
B4: AK920 (Fc fusion)
chain 1: [human IgG1 Fc with changes left out here]PGGSGPKIDACKRGDVTVKPSHVILLGSTVNITCSLKPRQGCFHYSRRNKLILYKFDRRINFHHGHSLNSQVTGLPLGTTLFVCKLACINSDEIQICGAEIFVGVAPEQPQNLSCIQKGEQGTVACTWERGRDTHLYTEYTLQLSGPKNLTWQKQCKDIYCDYLDFGINLTPESPESNFTAKVTAVNSLGSSSSLPSTFTFLDIVRPLPPWDIRIKFQKASVSRSTLYWRDEGLVLLNRLRYRPSNSRLWNMVNVTKAKGRHDLLDLKPFTEYEFQISSKLHLYKGSWSDWSESLRAQTPEE
chain 2: DKTHTCPPCPAPELLGGPSVFLFPPKPKDTLMISRTPEVTCVVVDVSHEDPEVKFNWYVDGVEVHNAKTKPREEQYASTYRVVSVLTVLHQDWLNGKEYKCKVSNKALPAPIEKTISKAKGQPREPQVYTLPPCRDELTKNQVSLWCLVKGFYPSDIAVEWESNGQPENNYKTTPPVLDSDGSFFLYSKLTVDKSRWQQGNVFSCSVMHEALHNHYTQKSLSLSPGGGSGGSRAAAVKSPSGPIWELKKDVYVVELDWYPDAPGEMVVLTCDTPEEDGITWTLDQSSEVLGSGKTLTIQVKEFGDAGQYTCHKGGEVLSHSLLLLHKKEDGIWSTDILKDQKEPKNKTFLRCEAKNYSGRFTCWWLTTISTDLTFSVKSSRGSSDPQGVTCGAATLSAERVRGDNKEYEYSVECQEDSACPAAEESLPIEVMVDAVHKLKYENYTSSFFIRDIIKPDPPKNLQLKPLKNSRQVEVSWEYPDTWSTPHSYFSLTFSVQVQGKDNTEGRVFTDKTSATVICRKNASISVRAQDRYYSSSWSEWASVPCSGGGGSGGGGSGGGGSRNLPVATPDPGMFPCLHHSQNLLRAVSNMLQKARQTLEFYPCTSEEIDHEDITKDKTSTVEACLPLELTKNESCLNSRETSFITNGSCLASRKTSFMMALCLSSIYEDLKMYQVEFKTMNAKLLMDPKRQIFLDQNMLAVIDELMQALNFNSETVPQKSSLEEPDFYKTKIKLCILLHAFRIRAVTIDRVMSYLNAS
B5: AK924 (Fc fusion)
chain 1: [human IgG1 Fc with changes left out here]GGSGGGSGKIDACKRGDVTVKPSHVILLGSTVNITCSLKPRQGCFHYSRRNKLILYKFDRRINFHHGHSLNSQVTGLPLGTTLFVCKLACINSDEIQICGAEIFVGVAPEQPQNLSCIQKGEQGTVACTWERGRDTHLYTEYTLQLSGPKNLTWQKQCKDIYCDYLDFGINLTPESPESNFTAKVTAVNSLGSSSSLPSTFTFLDIVRPLPPWDIRIKFQKASVSRSTLYWRDEGLVLLNRLRYRPSNSRLWNMVNVTKAKGRHDLLDLKPFTEYEFQISSKLHLYKGSWSDWSESLRAQTPEE
chain 2: B4 chain 2

One test deals with human IL-12 receptor (IL-12Rβ1 and IL-12Rβ2) on HEK-Blue IL-12 reporter cells (human, UniProt P42701 24-662; Q99665 24-862). The test can be described thus: cell-based or functional assay.
Turning to B1, the “Aklusion (Run 1)” value worked out at 68.9 fold, the “Aklusion (Run 2)” value is 54.8 fold and the “Average Aklusion” value stood at 61.9 fold.
On to B2, for which the “Aklusion (Run 1)” value came out at 40.4 fold, the “Aklusion (Run 2)” value was 37.1 fold and the “Average Aklusion” value stood at 38.7 fold.
With B3, the “Aklusion (Run 1)” value was 19.4 fold, the “Aklusion (Run 2)” value came out at 14.9 fold and the “Average Aklusion” value worked out at 17.1 fold.
For the molecule B4, the “Aklusion (Run 1)” value was found to be 45.3 fold, the “Aklusion (Run 2)” value stood at 45.3 fold and the “Average Aklusion” value turned out to be 45.3 fold.
For B5, the “Aklusion (Run 1)” value is 41.8 fold, the “Aklusion (Run 2)” value is 31.1 fold and the “Average Aklusion” value came out at 36.4 fold.

For the next test, the target named is rhIL-12RB1-Fc (human, UniProt P42701 24-545, limits assumed). The experiment in a line: SPR, IL-12 receptor immobilised, IL-12 construct flowed, 25 C, FIGS. 34A-34D. Here is the method:
Sensor Chips were coated and immobilized with IL-12 receptors. Dilutions of IL-12 constructs were flowed over the chips with the immobilized IL-12 receptors to determine the on rate at 25 degrees C. At equilibrium (approximately 3-4 minutes), the flow buffer was changed to PBST, to determine the off rates over 6 minutes. Between each run the chip was regenerated. The tables represent the SPR data (FIGS. 34 and 35).
A general note: In SPR one partner is held on a chip, and binding of the other changes the refractive index at the surface.
B3: the binding result is reported as “no binding”.

The record behind these values is US20230159603A1 (XILIO DEVELOPMENT, published 2023).
